Test results as given in the supplement of paper PMC7125110.
± gives the standard error. Variants at the background level are over-represented here.

B1: glmS ribozyme (parent)
chain: AUAAAAGCGCCAGAACUACAGAAAUGUAGUUGACGAGGAGGAGGUUUAUCGAAUUUUCGGCGGAUGCCUCCAAA

Variants of: B1
Experiment: self-cleavage kobs at 2500 uM GlcN6P; higher = faster cleavage; RNA array
Details: with glucosamine-6-phosphate
Summary of the method: (§1)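 kcat and KM were obtained from weighted Michaelis–Menten fits across concentrations of kobs values. Those came from one- or two-exponential decay fits to per-tile medians normalised to baseline and to non-cleaving reference variants. The variants were barcoded ribozymes transcribed in situ by E. coli RNA polymerase on sequenced MiSeq chips and tracked through a hybridised Cy3 probe at 37 °C, with 40 μM to 10 mM glucosamine-6-phosphate in HEPES/KCl/Mg(OAc)2 buffer flowed in.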

Variant	self-cleavage kobs at 2500 uM GlcN6P [s⁻¹]
C8U U46G G63U	< 1e-05
A12C G32C G37U A53U U54G	< 1e-05
A15G U31A A53G	0.01 ± 0.0031
A15U U31G G62U	< 1e-05
C8U C34A A48U	< 1e-05
A6U C8A A33C U65G	< 1e-05
G7C A14G C16G U69A	< 1e-05
C11A A52G G60C	< 1e-05
C10A G35U C58A	< 1e-05
C10U A53G G66U C68G	4.34e-05 ± 1.4e-05
G7U C34U G60U A64G	< 1e-05
U31A A33G A36C U46C	< 1e-05
G7C A48G C50G	< 1e-05
G29C G44C C50U G66U	< 1e-05
C11U U65G C68U	0.000106 ± 3.6e-05
G7U C61U C71U	< 1e-05
U30A A39G U69G	5.54e-05 ± 2.2e-05
C8G A64U U69A	< 1e-05
G7C G41U G43C	< 1e-05
A6U C16G G29U G43C U47G U54C	< 1e-05
C8A G35C A64C	< 1e-05

Variant	self-cleavage kobs at 2500 uM GlcN6P [s⁻¹]
A6G C16G G40U A64U	< 1e-05
C16U A36G G43A	< 1e-05
C16A U31C C70A	< 1e-05
G13U A15U C71U	5.99e-05 ± 2.5e-05
G7A A53U G59C	< 1e-05
A12C G37C A39C	< 1e-05
G7A A15C G41A A42C G44A	< 1e-05
C11U G29C U31A	< 1e-05
A14C C34G	< 1e-05
G9C G60U U65G	< 1e-05
G7C U31A C71G	< 1e-05
A6C A14G G37A G60C	< 1e-05
G32U G43U	< 1e-05
G13A G51C C67G	< 1e-05
C11G A12U U30C G40C C50G	< 1e-05
A14C C61G G63C	< 1e-05
C16U A36U G41A U46C G51C	< 1e-05
A6U U31A	8.83e-05 ± 2.1e-05
G9A U57G C71U	< 1e-05
C10G A36G A52U	< 1e-05
C10U C16U G32U G37U G43C	< 1e-05

Variant	self-cleavage kobs at 2500 uM GlcN6P [s⁻¹]
A12G A14U C34A G40C G63A	< 1e-05
G13C C16G U30G C71U	< 1e-05
A14U C34A G51C	< 1e-05
C8U A33G A64U	< 1e-05
G9U G43A A53U U65A U69A	< 1e-05
U30A A42U G62U	< 1e-05
A12C C34U	< 1e-05
G9A C11G A12U	< 1e-05
G13C U65C C70U	< 1e-05
U31A A33U C71G	< 1e-05
C8G U30G A42C C58U	< 1e-05
G13A A33C G38C C58A	< 1e-05
A15U A33U G59U	< 1e-05
U31A A36G C71A	< 1e-05
A15C A36U A42U	< 1e-05
G7U G9U U31C U56C	< 1e-05
C11A A36G U65C C71A	< 1e-05
A6C A15U U45A A52U G63C	< 1e-05
C16U G40U G63U	< 1e-05
A6U G38U U45C G63U	< 1e-05
G29U A42C C50G	< 1e-05

Variants of: B1
Experiment: self-cleavage kobs at 160 uM GlcN6P; higher = faster cleavage; RNA array
Details: with glucosamine-6-phosphate
Summary of the method: as §1

Variant	self-cleavage kobs at 160 uM GlcN6P [s⁻¹]
A15U U31G G62U	< 1e-05
A39C C71G	< 1e-05
G44C U56A	< 1e-05
A14C U45A U57A	< 1e-05
G38C A39C G40U U57A	< 1e-05
G7C G41U G43C	< 1e-05
C34A G44U A53C U55G	< 1e-05
A14C C34G	< 1e-05
C58G G66U	< 1e-05
G32U G43U	< 1e-05
A15G A39U A64U	< 1e-05
G9A C11U A15U U31G G35C A42U	< 1e-05
G32U A33C U47G	< 1e-05
G9U G37U C50U C67U	< 1e-05
A12C C34U	< 1e-05
G13C U65C C70U	< 1e-05
C8G U30G A42C C58U	< 1e-05
G40C A42C A52C	< 1e-05
A33C U49C U54A C68U	< 1e-05

Variants of: B1
Experiment: self-cleavage kobs at 10000 uM GlcN6P; higher = faster cleavage; RNA array
Details: with glucosamine-6-phosphate
Summary of the method: as §1

Variant	self-cleavage kobs at 10000 uM GlcN6P [s⁻¹]
G7C A14G C16G U69A	< 1e-05
G7U C34U G60U A64G	< 1e-05
G38C A39C G40U U57A	< 1e-05
C11U U65G C68U	5.53e-05 ± 1.2e-05
C8A G35C A64C	< 1e-05
A14C C34G	< 1e-05
G7C U31A C71G	< 1e-05
A6U U31A	9.85e-05 ± 2.2e-05
A12C C34U	< 1e-05
G9A C11G A12U	< 1e-05
A33C U49C U54A C68U	< 1e-05
